Measured values reported in PubChem BioAssay AID1963576 (National Center for Advancing Translational Sciences (NCATS), 2024).
Out of some 46,000 compounds screened, about 60 (0.1%) were called active. Inconclusive results (about 3%) are left out. The call rests on the fitted dose curve; in most records, active means well fitted inhibition curve with a large enough effect; inconclusive means small, poorly fitted or top-dose-only effect; inactive means no such curve, though single readings can be large or run the other way. The list shows a part of the results.

Test: Primary qHTS assay for Inhibitors of ovarian cancer metastasis using an organotypic tumor microenvironment (TME) model. Further: nearly all actives have a fitted effect of over 65% in size.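 On activity change, negative = inhibition: plate controls were DMSO wells for no effect and tomatine positive control wells for full effect.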
Details: SKOV3ip1-GFP adhesion/invasion on 3D omental model, fluorescence; series mostly up to 45.8 µM; activity change, negative = inhibition: at the top concentration
In short: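 qHTS, 4-pt dose (0.36-46 umol/L); SKOV3ip1-GFP, 1,200 cells/well, no FBS; primary omental fibroblast/mesothelial co-culture 48 h pre-grown; 2 h RT + 16 h 37 C; PBS wash, 4% PFA; GFP count 488/509 nm.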

Activity change, negative = inhibition, inactive:
CCCCN(C(=O)Nc1ccc(Cl)cc1)C1CCN(C(C)=O)CC1 -5.32%
CC(=O)c1cccc(NC(=O)C2=CC(c3ccc(F)cc3)=NS(=O)(=O)N2C)c1 -2.93%
CCCCCCc1c(C)c2c(cc(C)c3c(C)c(C)oc32)oc1=O -6.52%
O=C1CC(c2nc3ccccc3n2CCC2CCCCC2)CN1c1ccccc1Cl (stereo unspecified) 6.45%
Cc1ccc2onc(CC(=O)N3CCN(c4ccc(Cl)cc4)CC3)c2c1 -6.21%
COc1ccc(OC)c(CNC(=O)c2ccc(Sc3ccc(Cl)cc3)c(NC(C)=O)c2)c1 -2.9%
O=C(NCCc1ccccc1)c1ccc(Cn2c(=O)c3cccn3c3cccnc32)cc1 9.04%
COC(=O)c1cc2oc3ccccc3c2n1CC(=O)Nc1ccc(OC)c(OC)c1 6.46%
O=C(NC1CCCCC1)c1ccc(CSc2nc3ccncc3n2Cc2ccccc2)cc1 5.13%
O=C(NC(Cc1cc(=O)[nH]c2ccccc12)C(=O)O)c1ccc(Cl)cc1 (stereo unspecified) -0.551%
CCNS(=O)(=O)c1cc(-c2nnc(Nc3cccc(C(F)(F)F)c3)c3ccccc23)ccc1C 7.22%
Cc1cc2c(cc1S(=O)(=O)N(CCO)Cc1ccccc1)OCC(=O)N2 -3.42%
COc1ccc(NC(=O)CN2C(=O)CSc3ccc(S(=O)(=O)N(C)C)cc32)cc1OC 16.1%
CCOc1cc(C2C(C(=O)Nc3ccccc3)=C(C)Nc3ncnn32)cc(Br)c1O (stereo unspecified) -6.33%
CN(C)c1ccc(Nc2nc(N)n(C(=O)c3c(F)cccc3F)n2)cc1 18%
CCc1ccc2nc(N3CCN(C(=O)c4ccccc4)CC3)sc2c1 -13.8%
CCc1cccc(CC)c1N(COC)C(=O)Cn1c(CC)nc2ccccc21 -3.66%
Cc1ccc(NC(=O)Cn2c(CCC(=O)O)ccc2-c2cccs2)cc1Cl -2.02%
CCOc1ccc(C2C(=O)N(C3CCCCCC3)CC(=O)N2CCC2=CCCCC2)cc1OC (stereo unspecified) 5.12%

outcome, inactive:
Oc1c(C(c2ccccc2F)N2CCC3(CC2)OCCO3)sc2nc(-c3ccco3)nn12 (stereo unspecified)
Cc1cccc(N2CCN(C(=O)CCCn3c(=O)[nH]c4ccsc4c3=O)CC2)c1C
Cc1ccc(NC(=O)Cn2c(=O)n(CCCC(=O)NCc3ccc4c(c3)OCO4)c(=O)c3ccccc32)cc1
CCN(c1ccc(Cl)cc1)S(=O)(=O)c1nnc(NC(=O)c2ccco2)s1
Cc1ccc(C)c(N2CCN(C(=O)C3CCN(S(=O)(=O)c4ccc5[nH]c(=O)oc5c4)CC3)CC2)c1
Cn1c(=O)oc2cc(S(=O)(=O)N3CCCC(C(=O)N4CCN(c5ccc(Cl)cc5)CC4)C3)ccc21 (stereo unspecified)
Cc1ccc(C)c(NC(=O)CCS(=O)(=O)c2cccc3nsnc23)c1
